# In the supplement of paper PMC11417369:
# Some of the results follow.
# Test system: PF3D7_0420300 AP2 domain 1 (GST-tagged)
# Assay: gcPBM binding intensity (ln(normalized median fluorescence intensity)); higher = stronger DNA binding
# Method in brief: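 GST-fused DNA-binding domains of P. falciparum, expressed in E. coli, were applied at about 25 μg on average for 1 h to an Agilent 4 × 180k array of primer-extended double-stranded 36-bp intergenic genomic probes and negative controls. Binding intensity is the highest Masliner-normalised natural-log median intensity across replicate spots of either probe orientation, measured with Alexa488 anti-GST antibody and a 488 nm scan.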
row,Sequence,gcPBM binding intensity (ln)
1,TTATTCATATTATCATGTACTTATATATATTGTCAT [XGTACX_site2231],9.36
2,ACTAAAAGATATATAATTTCTTTCTTATTTATTTTT [CACACA_negctrl_site842],9.1
3,TATATTTATAGGTACACACACACATATAAATAAATA [CACACA_site6345],10
4,TTTATTAGTAATTATACACACATATAAAATGAATAA [CACACA_site6754],9.33
5,ATAAAATTATATTTTGCATGCAGGCCTTTTTCTTAA [TGCATGCA_site1030],9.27
6,AAAAAAAAAAAAAACACACACATATATATATATATA [CACACA_site1891],9.55
7,TTCCAAACCTCATTATGGAAAATAAAAAAATAAAAA [XGTACX_negctrl_site17],8.94
8,TTCCAAAAAGTTATTACACACATATGTGCACATATA [CACACA_site6465],9.53
9,ATAAAATATTTTTGAACATGCAGGTAAAAAATAAAA [TGCATGCA_site1019],9.27
10,AGAATATTATATTATGCATGCATATAGAAAAATATA [TGCATGCA_site302],9.21
11,TGTAATATAAAATTTTGTACTCAAAAATTTATATAT [XGTACX_site3252],8.9
12,ACTTATAAAAACATATACCCCATCGCATTTTTTCCA [XGTACX_negctrl_site177],9.44
13,AATTTTTTATATGTCACACATTTATTATTATTATTA [CACACA_site4198],9.53
14,AGTATTCATAAAAATACACACATGGAAAAATAAACT [CACACA_site6796],9.78
15,TATATATTTTTTTTTTGTACTCACAATATATGTATG [XGTACX_site8024],9.27
16,AAATTAAAATATAATACACACATAAAAAAAAAAAAA [CACACA_site4183],9.73
17,TGTATAAGTATTAATACACACACAAAATAATAAAAA [CACACA_site9156],9.8
18,TACTTACATTATTTATTTATATAAAAAGTTAATTAT [XGTACX_negctrl_site433],9.01
19,TATTTAAAAAGAAAAAAAAAAAAAAAAATACATATA [CACACA_negctrl_site164],9.16
20,AAAAAAAAAAAATATACACACTAATATATTTTTTTA [CACACA_site4604],9.22
21,TATATACGCAAACACACACACACATACACCCACATA [CACACA_site1724],10.2
22,TATTAAATTTATCGGAGTACATTTAAATGTATATAC [XGTACX_site7975],9.1

row,Sequence,gcPBM binding intensity (ln)
1,TATTACTATGTTATAACTTTTTTAAACGTGATCATA [TGCATGCA_negctrl_site128],9.11
2,TATGTGTAATATTTTTGTACAGAAAAAAAAAAAAAA [XGTACX_site7075],8.93
3,AAAAAAAAAAAAAACACACACATGCACATCATATTA [CACACA_site4467],9.64
4,ATATTTTTATTAGTAGTGCAATTTAGTGTATATATA [GTGCAC_site9542],9.27
5,TCATTTCACAGACACACACACACAATATATTTCCTT [CACACA_site9295],10.2
6,AAAAAAAAAATTAAAACATGCATAAATAAATATATT [TGCATGCA_site866],9.41
7,TTTTTTTTTCTTTTCAAACACACAATTGGTATATAT [CACACA_site3321],9.39
8,TAGTAGTTATCACTAACATGCAATAATATTATTTAA [TGCATGCA_site161],9.08
9,CGTATAAATATACGTGCATGTAACTTTTTCTATATT [TGCATGCA_site981],9.38
10,CTATTTATTTTTGATGCATGCCAAATATAGAAAAAA [TGCATGCA_site368],8.9
11,TGACTGTAGATATTTTGTACATAACCTAATATATAT [XGTACX_site970],9.27
12,TACAGTTCAATGAAGGTGCAATTAATATATAAAATA,9.19
13,ATAATATAATACGAAGGTACACATTTTCTTAATATA [XGTACX_site7947],9.38
14,TTATGTACAATTTCTTCTTTCTTTTTTCCTAAAGAC [CACACA_negctrl_site1193],8.87
15,ATAACATATATATATACACACACATATATATATGAA [CACACA_site7983],9.79
16,TTTTTTTTTTTTTTTTGTACACATAATATGAATAAT [XGTACX_site2661],8.93
17,ATATATTTTTTGAATACACACATATTATAGGTAATA [CACACA_site6709],9.42
18,TATAATATAATATATGCACACAAATATGTATATATG [CACACA_site8664],9.32
19,AACTATATATAACTAGTGCAAAGACAATATTTTAAA,9.3
20,AAAATTTAATATAATGCACACATAAAAAAAAAAAAT [CACACA_site8425],9.53
21,TTCTTTAAAATAAATTGTACTAACATATATATATAT [XGTACX_site6045],9.09
22,AAATATAATATATGCACACATACATACATATATATA [CACACA_site104],9.45
